For the series, the target named is human coagulation Factor X (UniProt P00742).

Experimental findings from patent publication US20160046957 are described below.

UniProt P00742, sequence (P00742 whole entry, looked up): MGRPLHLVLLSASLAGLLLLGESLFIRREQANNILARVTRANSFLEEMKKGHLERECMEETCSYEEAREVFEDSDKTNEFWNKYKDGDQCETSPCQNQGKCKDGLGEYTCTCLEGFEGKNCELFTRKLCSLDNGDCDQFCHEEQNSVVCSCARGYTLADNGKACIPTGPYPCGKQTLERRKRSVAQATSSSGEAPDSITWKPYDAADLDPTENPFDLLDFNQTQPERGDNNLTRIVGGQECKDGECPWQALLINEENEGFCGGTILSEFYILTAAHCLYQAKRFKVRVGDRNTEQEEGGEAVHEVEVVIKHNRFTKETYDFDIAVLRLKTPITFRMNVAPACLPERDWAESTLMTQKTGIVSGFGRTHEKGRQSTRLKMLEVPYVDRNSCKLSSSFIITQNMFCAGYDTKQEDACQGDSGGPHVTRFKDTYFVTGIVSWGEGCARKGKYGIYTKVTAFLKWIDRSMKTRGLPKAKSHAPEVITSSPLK

Take human furin (sequence left out): the “degree of processed FX against concentration of secreted furin (FIG. 5)” value is “only partial processing of FX is feasible with low concentrations of secreted furin (<20 U/mL), whereas higher levels of secreted furin correlate with better processed FX”.
